# Laboratory results reported in publication PMC6919601, “Identification of Plasmodium dipeptidyl aminopeptidase allosteric inhibitors by high throughput screening” (PLoS ONE, 2019).
# The campaign covered roughly 110,000 compounds. About 230 (0.21%) showed an effect of 50% or more. The list shows a part of the results.
# Biological target: DPAP1 (Plasmodium falciparum, UniProt Q8IIJ9)
# Assay: primary screen, percent inhibition; read by cleavage of a fluorogenic dipeptide substrate; higher = more effect of the substance
# Parameters: species or system P. falciparum D10 trophozoite lysates; single well
# 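Note: 30 min substrate incubation versus DMSO and 10 µM JCP410 controls.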
# DPAP1, sequence (Q8IIJ9 whole entry, looked up): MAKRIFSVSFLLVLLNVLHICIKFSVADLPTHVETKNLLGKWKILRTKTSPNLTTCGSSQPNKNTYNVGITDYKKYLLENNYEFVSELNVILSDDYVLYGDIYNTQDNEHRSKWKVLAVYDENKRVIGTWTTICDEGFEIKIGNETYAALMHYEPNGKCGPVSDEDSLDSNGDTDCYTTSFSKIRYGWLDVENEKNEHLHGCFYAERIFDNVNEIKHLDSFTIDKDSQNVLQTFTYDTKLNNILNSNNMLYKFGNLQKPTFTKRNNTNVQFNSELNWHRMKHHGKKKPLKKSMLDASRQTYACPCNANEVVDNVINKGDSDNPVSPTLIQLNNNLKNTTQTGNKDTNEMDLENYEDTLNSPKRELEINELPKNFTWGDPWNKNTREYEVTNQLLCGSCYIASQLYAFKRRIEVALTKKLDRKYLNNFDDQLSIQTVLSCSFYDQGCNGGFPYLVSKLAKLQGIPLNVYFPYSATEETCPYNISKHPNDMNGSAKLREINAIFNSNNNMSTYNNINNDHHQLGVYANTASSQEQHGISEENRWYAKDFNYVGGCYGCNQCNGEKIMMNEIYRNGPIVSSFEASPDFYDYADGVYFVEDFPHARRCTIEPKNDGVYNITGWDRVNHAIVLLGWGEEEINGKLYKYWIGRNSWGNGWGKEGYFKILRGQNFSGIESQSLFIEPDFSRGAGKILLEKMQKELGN
row,Compound,% Inhibition @ 10 uM
1,O=C(CN1C(=O)S/C(=C/c2cccc(F)c2)C1=O)Nc1ccc(F)cc1,-4.39%
2,CC(C)(C)CC(OC(=O)N1CCOCC1)C(=O)NCC#N (stereo not drawn),-8.81%
3,CC(=O)Nc1nc(Cn2c(-c3nonc3NC(C)=O)nc3ccccc32)nc(NC(C)=O)n1,0.503%
4,Cc1c(-c2nsc(NC(=O)c3cccc(F)c3)n2)nnn1-c1ccc(Br)cc1,0.234%
5,O=C(COCc1cc(-c2ccc(F)cc2)on1)NCc1ccc(Cl)cc1,-6.91%
6,COc1ccccc1C(=O)Nc1cc(C)ccc1C,-1.98%
7,Cc1ccc(-n2nc(C)c3c(C(F)(F)F)cc(=O)n(CC(=O)NCc4ccc5c(c4)OCO5)c32)cc1,1.63%
8,COCC(=O)n1nc(-c2ccco2)nc1NCc1ccccc1,-3.24%
9,Cc1cccc(OCc2nc(C#N)c(NCc3cccnc3)o2)c1,-1.38%
10,O=C(O)COc1ccccc1C1C2=C(O)CCCC2=NC2=C1C(=O)CCC2 (stereo not drawn),-2.45%
11,Cc1cc(NC(=O)CN2CCCC2)c2ccccc2n1,1.9%
12,COc1ccccc1CNC(=O)c1sc2nc(-c3ccc(OC)c(OC)c3)ccc2c1N,0.161%
13,O=C(NC1(C(Cl)(Cl)Cl)Oc2ccccc2O1)C(F)(F)F,1.12%
14,CCN1CCC(NCc2ccc(Cl)cc2)CC1,-1.5%
15,COc1ccc(C2(C(=O)NCc3ccco3)CCCC2)cc1OC,3.87%
16,C=CCS(=O)(=O)c1nc2ccc([N+](=O)[O-])cc2s1,-0.636%
17,CC(C)CC(NC(=O)OCc1ccccc1)C(=O)NC(CC(C)C)C(=O)NC(CC(C)C)C(=O)Nc1c(NCc2ccccc2)c(=O)c1=O (stereo not drawn),-3.14%
18,COc1cccc2c1cc1c(=O)n(CC(=O)N3CCN(C)CC3)nc(C)n12,-5.55%
19,CCC(C)(Nc1ccc(C)cc1)c1nnnn1C(/C=C\c1ccc(Cl)cc1Cl)C(C)(C)C (stereo not drawn),-1.29%
20,Cc1nnc(N2CCCC(C(=O)NCc3ccc(OC(C)C)cc3)C2)c2nn(-c3ccccc3)c(C)c12 (stereo not drawn),-0.518%
21,COc1ccc(/C=C2/SC(c3ccc(C)cc3)=NC2=O)c(OC)c1,-1.96%
22,Cn1c2c(c(=O)n(C)c1=O)C(c1ccc(Cl)cc1)C(C#N)=C(N)O2 (stereo not drawn),-7.67%
23,CCCN1CCC(NCCc2ccccc2)CC1,4.54%
24,Cc1ccc(COc2ccc(/C=C3/C(=N)N4C(=NC3=O)SN=C4S(C)(=O)=O)cc2)cc1,-7.21%
25,Cn1c(=O)c2c(nc(Sc3nc[nH]n3)n2C)n(C)c1=O,0.315%

row,Compound,% Inhibition @ 10 uM
1,Cc1nn(C)c2c1c(-c1ccccc1)cc(=O)n2Cc1cc(=O)n2cc(Cl)ccc2n1,-2.6%
2,CN(Cc1nc2ccccc2n1C)C(=O)c1cccs1,1%
3,CCOC1=C(C)C(c2ccccc2)Oc2ccccc21 (stereo not drawn),-3.35%
4,Cc1ccnc(NC(=O)c2cc3c(=O)oc4ccc(C)cc4c3s2)c1,2.5%
5,CCN1CCN(C(=O)c2ccc(N)cc2C(=O)O)CC1,-0.891%
6,Cc1nnc(N2CCCC(C(=O)N(C)Cc3ccccc3)C2)c2nn(-c3ccccc3)c(C)c12 (stereo not drawn),-0.341%
7,CCC(C)Sc1nc2c(c(=O)[nH]c(=O)n2C)n1Cc1cccc(C)c1 (stereo not drawn),0.746%
8,CC1(C)CC2=Nc3ccccc3N(C(=O)c3ccccc3)C(c3ccco3)C2=C(O)C1 (stereo not drawn),-1.08%
9,COC(=O)c1c(C)oc2cc(Br)c(O)cc12,4.66%
10,Cc1nc2c(c(C)c1CCC(=O)NCC1CCN(Cc3ccccc3F)CC1)c(=O)n(C)c(=O)n2C,-1.3%
11,O=C1C(C(c2ccc(Cl)cc2)N2CCCC2)C(c2ccc(Cl)cc2)=NN1c1ccc(Cl)cc1 (stereo not drawn),-6.52%
12,CC(C)CCNC(=O)Cn1ccc2cc(S(=O)(=O)N3CCCC3)ccc21,0.536%
13,C=C(C)C(C)(O)C#CCN1CCCCC1 (stereo not drawn),2.54%
14,O=C(Nc1ccc(Cl)cc1)Nc1cccc(Cl)c1,-4.94%
15,C/C=C/C=C/C(=O)Nc1ccc(-c2nc3ccccc3o2)cc1,0.219%
16,CCOC(=O)c1ccc(-c2nnc(-c3ccccc3OC)o2)cc1,2.7%
17,COc1ccc(N(CC(=O)NC(C)(C)C)S(=O)(=O)c2ccc(C)cc2)cc1Cl,-0.185%
18,Fc1ccccc1-c1nnc(-c2ccc(C(F)(F)F)cc2)o1,-5.32%
19,CC(C)(C)NC(=O)CCNS(=O)(=O)c1ccc(Br)s1,-0.601%
20,Cc1c(O)ccc(-c2[nH]ncc2Oc2ccccc2)c1O,4.07%
21,CC(C)C[C@H](NC(=O)OC(c1ccccc1)c1ccccc1C(F)(F)F)C(=O)NCC#N (stereo partly drawn),0.174%
22,CCOC(=O)c1c(-c2ccc(OC)cc2)oc2ccc(OCC)cc12,-3.41%
23,CCOc1cccc(-c2cc(C(=O)O)c3cccc(C)c3n2)c1,2.69%
24,Cc1ccc(CNC(=O)Cc2c(C)nc3c(-c4ccccc4)c(C)nn3c2C)cc1,5.47%
25,Cc1nn(C)c(C)c1CN(C)C(=O)c1cc2nc3c(c(C(F)(F)F)n2n1)CCc1ccccc1-3,0.64%

row,Compound,% Inhibition @ 10 uM
1,Cc1nc2c3ccccc3n3c(CCCC(=O)NCc4ccccn4)nnc3n2n1,-1.21%
2,O=C(c1cccc(Cl)c1)N1CCc2ccccc2C1,8.74%
3,CC(C)c1ccc(NC(=O)CN(C)S(=O)(=O)c2ccc(Br)cc2)cc1,-3.26%
4,CCN1CCN(C(=O)C2CC(c3ccccc3OC)=NO2)CC1 (stereo not drawn),6.04%
5,Cc1nn(CCCC(=O)N2CCN(C3CCCCC3)CC2)c(=O)c2c1sc1ccccc12,2.21%
6,O=C(C1CCN(c2nnc(-n3cccc3)s2)CC1)N1CCc2ccccc2C1,-4.04%
7,Cc1cc(N)ccc1-n1nc2ccccc2n1,-2.97%
8,O=C(O)C(Cc1ccccc1)NS(=O)(=O)c1cccc2cccnc12 (stereo not drawn),-0.458%
9,CC1(C)CC(=O)C(/C=N/c2ccc3ccccc3c2)=C(O)C1,-1.07%
10,Cc1ccc(-c2cc(C(=O)NCc3ccco3)c3ccccc3n2)s1,5.84%
11,Cc1ccc(C2C(=O)N(C3CCCCCC3)CC(=O)N2Cc2ccccc2)cc1 (stereo not drawn),-5.92%
12,Cc1ccc(C(=O)N2CCN(c3cccc(C(F)(F)F)c3)CC2)o1,-3.45%
13,COc1ccc(OC)c(C2NC(=O)NC(C)=C2C(=O)Nc2ccc(Cl)cc2)c1 (stereo not drawn),-3.04%
14,N#CCNC(=O)[C@H](Cc1c(F)cc(Cl)cc1F)NC(=O)OCc1ccccc1,-4.82%
15,Cc1ccc(SCCC(=O)N2CCN(C)CC2)cc1,3.37%
16,COc1cccc(C2=NOC(C(=O)Nc3cccnc3)C2)c1 (stereo not drawn),6.22%
17,COc1ccc(NC(=O)C2(c3ccccc3)CCOCC2)cc1,4.22%
18,Cc1ccc(Cc2c(C)nc3c(C(=O)NCCCN4CCOCC4)cnn3c2C)cc1,-11.8%
19,CN1CCN(CC(=O)Nc2ccc(Cl)cc2C(=O)c2ccccc2)CC1,-10.1%
20,O=C(COc1ccccc1)Nc1ccc(S(=O)(=O)N2CCc3ccccc32)cc1,6.24%
21,N#Cc1cccc(NC(=O)CCc2ccccc2)c1,2.17%
22,COc1ccc(-c2cc(C(F)(F)F)n3ncc(C(=O)NC4CCCCC4)c3n2)cc1OC,-1.87%
23,COc1ccc(/C=C/C(=O)c2ccncc2)c2ccccc12,-3.77%
24,Cc1csc(NC(=O)c2c(O)c3ccccc3n(CC(C)C)c2=O)n1,6.1%
25,Cc1cccc(C(=O)Nc2nc(-c3nnn(-c4ccc(F)c(Cl)c4)c3C)ns2)c1,1.97%

row,Compound,% Inhibition @ 10 uM
1,Cc1cc(O)nc2c1c(C)nn2CCc1ccccn1,-2.77%
2,COc1ccc(-n2nnnc2C2CCN(S(=O)(=O)c3ccccc3C#N)CC2)cc1,-9.21%
3,O=C(Nc1cccc2ccccc12)c1c(F)cccc1F,-2.28%
4,Cc1ccc(CNCc2c(C(=O)O)n(Cc3ccc(F)cc3Cl)c3cc(C)ccc23)cc1,-8.66%
5,Cc1cc(C)c(C)c(OCC(=O)NC23CC4CC(CC(C4)C2)C3)c1,-3.29%
6,Cc1nc(SCC(=O)N2CCC(C)CC2)c2c3c(sc2n1)CCCC3,-2.28%
7,Cc1cc(C)c(NC(=O)c2ccc(C)o2)c(C)c1,-0.132%
8,COc1ccc(CN2CC(C)CC(C)C2)c2ccccc12 (stereo not drawn),-1.5%
9,CC(C)(C)NC(=O)CSc1nnc(-c2ccc(Cl)cc2Cl)o1,2.79%
10,CCOC(=O)/C(C#N)=C/c1ccc(O)cc1O,5.29%
11,Cc1cc(C)c2c(-n3cccc3)c(C(=O)NCCCN3CCC(N4CCCCC4)CC3)sc2n1,0.623%
12,O=C(NCC1CCCO1)c1cnn2c(C(F)(F)F)cc(-c3cccs3)nc12 (stereo not drawn),-4.06%
13,CCOC(=O)c1ccccc1NC(=O)c1ccccc1Cl,2.57%
14,CCN(CC)C(=O)c1ccc(CS(=O)c2ccccc2C)o1 (stereo not drawn),-4.96%
15,COc1cc(NC2CCCCCC2)cc(OC)c1,-5.44%
16,Cc1ccc2nc(C)c(CN3CCOCC3)c(O)c2c1,1.37%
17,CC1=C(C(=O)OC2CCCCCCC2)C(c2ccccc2Cl)CC(=O)N1 (stereo not drawn),1.97%
18,CCN(CC)C(=O)c1ccc(C(O)C(Cl)(Cl)Cl)o1 (stereo not drawn),5.64%
19,CC(C)OCCCNc1ncnc2c1cnn2C,4.92%
20,Cc1cccc(N2CCN(C(=O)c3ccccc3C(=O)O)CC2)c1,1.92%
21,COc1ccc(C(=O)c2sc3nc(C)ccc3c2N)cc1OC,5.66%
22,C1=C(c2ccccc2)CC(c2ccccc2)=NN=C1c1ccccc1,-1.54%
23,COc1ccc(C2C(C#N)=C(N)OC3=C2C(=O)CCC3)c(OC)c1OC (stereo not drawn),-4.75%
24,Cc1cc2nc(O)c(O)nc2cc1S(N)(=O)=O,0.454%
